{"source": "PubChem BioAssay AID2101", "about": "(National Center for Advancing Translational Sciences (NCATS), 2009)", "note": "Among all 330,000 compounds or so, about 300 (0.091%) were called active. The inconclusive results got no clear call from the source; some entries with a clear call stand among them for comparison. The call rests on the fitted dose curve; in most records, active means well fitted inhibition curve with a large enough effect; inconclusive means small, poorly fitted or top-dose-only effect, or effect the other way, or another doubt; inactive means no such curve, though single readings can be large or run the other way. No potency is given beside an inconclusive call; the fits are too rough. Potency means the concentration at half of the fitted maximal effect."}
{"target": "Lysosomal acid glucosylceramidase (Homo sapiens) (UniProt P04062)", "assay": "qHTS Assay for Inhibitors and Activators of N370S glucocerebrosidase as a Potential Chaperone Treatment of Gaucher Disease;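 on activity change, negative = inhibition: 0% = full enzyme activity and -100% = no enzyme basal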", "conditions": "N370S GC spleen homogenate, 4MU-glucoside fluorescence; activity change, negative = inhibition: at 59.4 µM (top of the series) unless noted"}
{"smiles": "CCN(CCC#N)c1ccc(/C=N/Nc2nc(C)cc(=O)[nH]2)c(C)c1", "Potency": "inconclusive [inhibitor, partial curve, poor fit]"}
{"smiles": "COC(=O)[C@@H]1C[C@@H]2CC[C@@H](O)C[C@@H]2N1Cc1ccc(Cl)cc1", "Potency": "inconclusive [inhibitor, single point]"}
{"smiles": "CC(C)C[C@H](CO)Nc1nc(Nc2cccc(Cl)c2)c2ncn(C(C)C)c2n1", "Potency": "inconclusive [inhibitor, partial curve]"}
{"smiles": "CCCC(=O)OC1(C(=O)CO)CCC2C3CCC4=CC(=O)CCC4(C)C3C(O)CC21C", "note": "(configuration not stated)", "Potency": "inactive"}
{"smiles": "CCOC(=O)C(=O)NC(C)c1ccccc1", "note": "(configuration not stated)", "Potency": "inactive"}
{"smiles": "COc1ccc(NC2c3ccccc3C(=O)N2Cc2ccc3c(c2)OCO3)cc1", "note": "(configuration not stated)", "Potency": "inconclusive [activator, partial curve, poor fit]"}
{"smiles": "Cc1ccccc1-c1nc(CN2CCC(C(=O)NCCC3=CCCCC3)CC2)c(C)o1", "Potency": "inconclusive [inhibitor, partial curve]"}
{"smiles": "c1ccc2c(NC3CC3)nc(-c3ccoc3)nc2c1", "Potency": "inconclusive [inhibitor, partial curve]"}
{"smiles": "COC(=O)Cc1c(C)c2cc(Cl)c(OC(=O)c3ccco3)cc2oc1=O", "Potency": "inconclusive [activator, partial curve]"}
{"smiles": "O=C(CCCn1c(SCc2ccccc2F)nc2ccccc2c1=O)NCC1CCCO1", "note": "(configuration not stated)", "Potency": "inconclusive [inhibitor, single point]"}
{"smiles": "COc1ccc(OC)c(CNc2c(C=O)c(=O)[nH]c3ccccc23)c1", "Potency": "inconclusive [activator, partial curve]"}
{"smiles": "O=C(NN=C1C2CC3CC1CC(Cl)(C3)C2)c1cccs1", "activity change, negative = inhibition": "inconclusive: 29.2% [activator]"}
{"smiles": "O=C(NCCc1c[nH]c2ccccc12)C(=O)Nc1cc2c3c(c1)CC(=O)N3CCC2", "Potency": "inconclusive [inhibitor, single point]"}
{"smiles": "C/C(=N\\NC(=O)COc1cccc(Cl)c1)c1ccc2c(c1)OCCO2", "Potency": "inconclusive [inhibitor, full curve, poor fit]"}
{"smiles": "CCOc1ccc(N(CC(=O)NCc2ccccc2Cl)S(=O)(=O)c2c(C)[nH]c(=O)[nH]c2=O)cc1", "Potency": "active: 3.98 µM"}
{"smiles": "COC(=O)c1ccccc1NC(=O)C1COc2ccccc2O1", "note": "(configuration not stated)", "Potency": "inconclusive [activator, single point]"}
{"smiles": "COc1cccc(CNCCO)c1OCc1ccccc1", "Potency": "inconclusive [inhibitor, single point]"}
{"smiles": "CCN(CC)c1nc2c(c(=O)n(C)c(=O)n2C)n1CCCc1ccccc1", "Potency": "inconclusive [inhibitor, partial curve]"}
{"smiles": "O=C(Cn1ccc2ccccc2c1=O)NCCC(=O)N1CCN(c2cccc(Cl)c2)CC1", "Potency": "inconclusive [activator, partial curve]"}
{"smiles": "Cc1cc(=O)oc2ccc(OC(=O)CN3C(=O)c4cccc([N+](=O)[O-])c4C3=O)cc12", "Potency": "inconclusive [inhibitor, full curve, poor fit]"}
{"smiles": "CN(C)c1ccc(N=Nc2ccccc2C(=O)OCC(=O)N2CCCCCC2)cc1", "Potency": "inconclusive [activator, single point]"}
{"smiles": "CC#CC[N+](C)(C)CCCCCCCCCC", "Potency": "active: 15.8 µM"}
{"smiles": "CCCCCCC#CC1C=CC(OC(=O)OCC)C(COC(=O)OCC)O1", "note": "(configuration not stated)", "activity change, negative = inhibition": "inactive: -5.39% [at 12.8 µM]"}
{"smiles": "COc1ccc2c(c1)O[C@@H](c1ccc3c(c1)OCO3)[C@H](OC(=O)NS(=O)(=O)c1ccc(C)cc1)C2=O", "Potency": "inactive"}
{"smiles": "COc1cccc(C2C3=C(CC(C)(C)CC3=O)Nc3cc4c(cc32)OCO4)c1", "note": "(configuration not stated)", "Potency": "inconclusive [activator, partial curve]"}
{"smiles": "CCc1cc2c(nc1CC)CCN(CC/C(C)=N/OC[C@H]1O[C@H](c3ccccc3)C=C[C@@H]1Oc1ccc(OC)cc1)C2", "Potency": "inconclusive [inhibitor, partial curve, poor fit]"}
{"smiles": "CCn1nc(NC(=O)C(C)C)c2cc3cccc(C)c3nc21", "Potency": "inconclusive [activator, single point]"}
{"smiles": "Cn1c(-c2ccc3c(c2)OCO3)cnc1NCc1ccc(Cl)cc1", "Potency": "inactive"}
{"smiles": "CCC1CCCCC1", "Potency": "inactive"}
{"smiles": "CN(C)CCCN(Cc1ccccc1)C(=S)Nc1ccc(F)c(Cl)c1", "Potency": "inconclusive [inhibitor, single point]"}
{"smiles": "COC(=O)C1=C(C(=O)OC)[C@@H]2Nc3ccccc3[C@@]23C[C@@H](C(=O)OC)N(C(=O)c2ccc(Br)cc2)C3=N1", "Potency": "inactive"}
{"smiles": "O=c1nc2ccccn2c2ccc(S(=O)(=O)N3CCCCC3)cc12", "Potency": "inconclusive [activator, single point]"}
{"smiles": "CCOc1ccc(NC(=O)C(C)Oc2ccccc2C(=O)Nc2cccc(Cl)c2Cl)cc1", "note": "(configuration not stated)", "Potency": "inconclusive [activator, full curve]"}
{"smiles": "CCOC(=O)Cn1c(=N)n(CCOc2ccc3ccccc3c2)c2ccccc21", "Potency": "inconclusive [inhibitor, single point]"}
{"smiles": "Cc1ccc(-c2noc(CCC(=O)N3CCN(c4cccc(C(F)(F)F)c4)CC3)n2)cc1", "Potency": "inconclusive [activator, single point]"}
{"smiles": "CNc1ncnc2c1ncn2[C@@H]1O[C@H](COP(=O)(O)O)[C@@H](O)[C@H]1O", "Potency": "inactive"}
{"smiles": "O=C(NCc1cc(C(F)(F)F)ccc1F)C1CCC(=O)N(C2CCCCCC2)C1", "note": "(configuration not stated)", "Potency": "inconclusive [activator, single point]"}
{"smiles": "OC(CN1CCCCC1)Cn1c2ccc(Cl)cc2c2cc(Cl)ccc21", "note": "(configuration not stated)", "Potency": "inconclusive [inhibitor, partial curve]"}
{"smiles": "Cc1cccc(NC(=O)c2nc[nH]c2C(=O)N[C@@H](CCCCNC(=O)OC(C)(C)C)C(=O)OC(C)(C)C)c1", "Potency": "inconclusive [activator, partial curve, poor fit]"}
{"smiles": "O=C(Cc1ccccc1)Nc1cc2c(cc1Cl)OCCCO2", "Potency": "inactive"}
{"smiles": "Nc1c(C(O)(C(F)(F)F)C(F)(F)F)ccc2ccccc12", "Potency": "inconclusive [activator, partial curve]"}
{"smiles": "c1ccc(-c2nnc(C(c3ccccc3)c3ccccc3)o2)cc1", "Potency": "inconclusive [activator, single point]"}
{"smiles": "Cc1ccc(/C=C2/C(=O)ON=C2c2ccccc2)o1", "Potency": "inactive"}
{"smiles": "COc1ccc(CCNC(=O)COC(=O)c2ccccc2NCCO)cc1OC", "Potency": "inconclusive [activator, partial curve]"}
{"smiles": "COC(=O)c1cc(NC(=O)COC(=O)CN2C(=O)C3CC=CCC3C2=O)cc(C(=O)OC)c1", "note": "(configuration not stated)", "Potency": "inactive"}
{"smiles": "NC(=O)c1cc2ccc(O)cc2oc1=NCc1ccccc1", "Potency": "inconclusive [activator, partial curve]"}
{"smiles": "COc1c2ccccc2nc2ccccc12", "Potency": "inconclusive [activator, partial curve]"}
{"smiles": "O=c1c(-c2ccc3c(c2)OCCO3)coc2cc(OC3OC(CO)C(O)C(O)C3O)ccc12", "note": "(configuration not stated)", "Potency": "inactive"}
{"smiles": "COc1ccc(-c2cc3nc4n(c(=O)c3s2)CCC4)cc1", "Potency": "inactive"}
{"smiles": "NNC(=O)CN1C(c2ccccc2)=Nc2ccc(Br)cc2C1c1ccccc1", "note": "(configuration not stated)", "Potency": "active: 39.8 µM"}
{"smiles": "CCN1CCN(CCCNC(=O)c2ccc3c(=O)n(CCc4ccccc4)c(=O)[nH]c3c2)CC1", "Potency": "inconclusive [activator, partial curve]"}
{"smiles": "COc1ccc(C(=O)n2nc(-c3ccccc3)nc2N)cc1OC", "Potency": "inconclusive [activator, full curve]"}
{"smiles": "COc1ccc(CNC(=O)C(c2ccc(C)o2)N(C(=O)c2snc(C(N)=O)c2N)c2ccccc2OC)cc1", "note": "(configuration not stated)", "Potency": "inconclusive [activator, single point]"}
{"smiles": "COC(=O)[C@H](Cc1ccccc1)NC(=O)c1ccc2ccccc2n1", "Potency": "inconclusive [activator, single point]"}
{"smiles": "CCOc1ccc(C2CC(=O)NC3=C2C(=O)CCC3)cc1Cl", "note": "(configuration not stated)", "Potency": "inactive"}
{"smiles": "COc1cccc(NC(=O)CSc2nc3ccccc3c(=O)n2CCCC(=O)N2CCCC2)c1", "Potency": "inconclusive [activator, single point]"}
{"smiles": "O=C(CN1CCN(c2ccccc2)CC1)N1CCc2ccccc21", "Potency": "inactive"}
{"smiles": "COC(=O)C1=CN(C2CC2)C=C(C(=O)OC)C1c1ccc(C(F)(F)F)cc1", "Potency": "inconclusive [activator, partial curve]"}
{"smiles": "CCc1cccc2c(=O)c(C(=O)NCCCOC)c[nH]c12", "Potency": "inconclusive [activator, single point]"}
{"smiles": "Cc1ccc(Cc2c(C)c(C#N)c3[nH]c4ccccc4n3c2=O)cc1", "Potency": "inconclusive [activator, full curve]"}
{"smiles": "CC(C)Cn1cnc2c(c1=N)C(c1ccccc1)C1=C(CC(C)(C)CC1=O)O2", "note": "(configuration not stated)", "Potency": "inconclusive [activator, partial curve, poor fit]"}
{"smiles": "COc1ccc(C2Nc3ccccc3C(=O)N2c2ccccc2)cc1Cn1cc([N+](=O)[O-])cn1", "note": "(configuration not stated)", "Potency": "inconclusive [activator, full curve, poor fit]"}
{"smiles": "c1coc(-c2ccnc3nc(-n4cccc4)nn23)c1", "Potency": "inactive"}
{"smiles": "C=CCn1c(SCC(=O)c2cccs2)nc2sc(C)c(C)c2c1=O", "Potency": "inconclusive [activator, partial curve]"}
{"smiles": "O=C(O)C1C2CCC(C2)C1C(=O)N1CCCC1", "note": "(configuration not stated)", "Potency": "inactive"}
{"smiles": "Cc1ccc(-c2cccc(C(=O)NCc3ccccc3)n2)c2ccccc12", "activity change, negative = inhibition": "inconclusive: 36.6% [activator]"}
{"smiles": "COc1ccc(C(=O)OC(C(=O)c2ccccc2)c2ccccc2)cc1", "note": "(configuration not stated)", "Potency": "inconclusive [activator, partial curve]"}
